Results: PubChem BioAssay AID1508624 (National Center for Advancing Translational Sciences (NCATS), 2021)
The campaign covered roughly 48,000 compounds. About 120 (0.25%) were called active. Roughly 4% stayed inconclusive and do not appear here. Calls follow the shape of the dose curve; as a rule, active = well fitted activation curve with a large enough effect; inconclusive = small, poorly fitted or top-dose-only effect, or another doubt; inactive = no such curve, though single readings can be large or run the other way. The list shows a part of the results.

Assay: Primary qHTS for Identification of Small Molecule Activators of Huntingtin-Antisense Promoter Activity; also: nearly all actives have a fitted effect of over 55% in size
Conditions: HEK293 HTT-AS promoter firefly luciferase reporter (activity 0% = vehicle and -100% = no light), 24 h; series mostly up to 57.5 µM; activity change, positive = activation: at the top concentration
In short: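 Luminescence was read after Dual-Glo reagent and a 10 min room-temperature incubation. Values were normalized to vehicle (0% activity) and zero RLU (-100% activity). Reporter HEK293 cells had been exposed to compounds (up to 57.5 uM final) for 24 h.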

Activity change, positive = activation, inactive:
O=C(Nc1nnc(S(=O)(=O)N2CCCCC2)s1)c1ccccc1Br -21.9%, Cc1ccc(NC(=O)c2ccc3c(O)c(S(=O)(=O)c4ccccc4)c(=O)[nH]c3c2)cc1Cl -11.8%, Cc1ccc(-c2nnc(Nc3ccc(C(=O)N(C)C)cc3)c3ccccc23)cc1S(=O)(=O)N(C)C -22.2%, CCN(C(=O)CN1C(=O)COc2ccc(S(=O)(=O)N3CCOCC3)cc21)c1ccc(OC)cc1 -3.14%, CC(C)(C)CC(=O)NCC(c1ccc2c(c1)OCO2)N1CCOCC1 (stereo not given) -11.4%, O=C(Nc1cccc(F)c1)c1ccc2c(c1)N(Cc1ccccc1)C(=O)c1ccccc1S2(=O)=O -18.3%, O=C(COc1ccc(Cl)cc1)OCc1cc(=O)n2nc(C3CC3)sc2n1 -6.49%, N[C@@H](C(=O)N[C@@H]1C(=O)N2C(C(=O)O)=C(Cl)CS[C@H]12)c1ccccc1, COc1ccc(C(=O)NCC(c2ccc(N(C)C)cc2)N2CCc3ccccc32)cc1OC (stereo not given) -16.7%, COC(=O)c1ccccc1NC(=O)C1CCN(C(=O)N2CC(C)Oc3ccccc32)CC1 (stereo not given) -15.6%, COc1ccc(-c2nc3ccccc3s2)cc1NC(=O)c1ccc(F)cc1 -3.64%, CN1[C@@H]2CC[C@H]1CC(NC(=O)n1c(=O)[nH]c3ccccc31)C2 (stereo not given in full) -3.73%, Cc1cccc(NC(c2ccccc2F)c2ccc3ccc(C)nc3c2O)n1 (stereo not given) 10.4%, Cc1ccc(OCC(=O)Nc2ccccc2OCc2cc(=O)n3ccccc3n2)cc1C -4.78%, CCCN1Cc2cccc(C(=O)Nc3cccc(C(=O)OCC)c3)c2C1=O 6.6%, CCC1Oc2ccc(Cl)cc2N(CC(=O)NCCc2ccc(Cl)cc2)C1=O (stereo not given) -23%, CCCCCCCCCCCCCCCC[n+]1ccccc1 -58.1%, COCCNc1nc(NCc2cccc(Cl)c2)c2cnn(C)c2n1 -33.1%, COc1ccc(/C=C/C(=O)Nc2ccc3nc(N4CCC(C)CC4)cc(C)c3c2)cc1 -32.4%, CCc1cccc(C)c1NC(=O)Cn1nc(C)c2nn(-c3ccc(Cl)cc3)c(C)c2c1=O -26.1%, CCN(c1ccccc1)S(=O)(=O)c1c(-c2ccc(C)cc2)csc1C(=O)OC -33.9%, COc1ccccc1C(=O)Nc1ccc2oc(-c3cccc4c(Br)cccc34)nc2c1 -12.9%, O=C(Cc1csc2nc(-c3ccc(F)cc3)cn12)NCc1ccccc1 22.1%, C=Cc1ccc(Cn2c(C)c(CNCc3ccccc3C)c(C(=O)O)c2C)cc1 -25.7%, COc1ccccc1CNC(=O)CCn1c(=O)c2cccn2c2cccnc21 -13.2%, NC1=NC(c2cccc(Cl)c2)n2c(nc3ccccc32)N1 (stereo not given) -18.1%, CCOc1ccc2c(c1)c(=O)c(S(=O)(=O)c1ccc(F)cc1)cn2CC(=O)Nc1ccccc1C -9.62%, CCOC(=O)c1cnn(-c2ccc(C(=O)Nc3ccc(C(C)=O)cc3)cc2)c1N -6.79%, CCOC(=O)c1c(S(=O)(=O)N2CCCC(C(=O)NCc3cccc(C)c3)C2)c(C)n(C)c1C (stereo not given) 0%, COc1cc2cc(CNc3ccccc3)c(=O)n(CC(=O)Nc3ccc(C)c(Cl)c3)c2cc1OC -22.4%, COCCN(Cc1ccco1)C(=O)c1cc2c(=O)[nH]c3ccc(C)cc3c2s1 -14.4%, O=C(COc1ccccc1)NCC(c1ccc(Cl)cc1)N1CCOCC1 (stereo not given) -20.3%, Cc1ccc(-c2noc(-c3ccc(N4CCN(C)CC4)c([N+](=O)[O-])c3)n2)cc1 -20.3%, Cc1ccc(NC(=O)c2oc3ccc4c(c3c2C)C(=O)CC(C)(C)O4)c(C)c1 -28.7%, COc1ccc(CCNC(=O)c2cccc(Nc3nc4ccccc4nc3-n3nc(C)cc3C)c2)cc1OC 10.2%, O=C(CSc1n[nH]c(-c2ccc(F)cc2)n1)NCc1ccccc1Cl -26.1%, COc1ccc(C2C=C(c3ccc(Cl)cc3)Nc3nc(-c4ccc(Cl)cc4)nn32)cc1 (stereo not given) -92.5%, CC(=O)Nc1ccc2nc3c(=O)n(C)c(=O)n(C)c3nc2c1C -1.91%, CCOC(=O)Cn1c(=O)oc2cc(S(=O)(=O)N3CCN(c4cccc(C)c4)C(C)C3)ccc21 (stereo not given) -22.9%, COc1ccccc1CNC(=O)C(C)n1c(=O)cc(-c2ccccc2)c2c(C)nn(C)c21 (stereo not given) -29%, Cc1nc2cccnc2n1-c1cccc(C(=O)NCCN(C)C)c1 -1.32%, COc1ccc(-c2cc(C(F)F)nn2-c2ccc(S(N)(=O)=O)cc2)cc1F -15.6%, N#Cc1nc(-c2ccc(COc3ccccc3)o2)oc1N1CCN(c2ccccc2)CC1 -4.09%, CCc1ccc(CNC(=O)c2cnc3sc(N4CCOCC4)nn3c2=O)cc1 -4.9%, Cc1cccc(OC(=O)c2cc(-c3ccc(C)c(C)c3)on2)c1 1.84%, COc1ccc(Cl)cc1NC(=O)N1CCN(Cc2cc(=O)n3nc(-c4ccccc4)sc3n2)CC1 -0.307%, O=C1CCSC2(C(=O)N(Cc3ccc(F)cc3)c3ccccc32)N1c1ccc(Cl)cc1 (stereo not given) -31.6%, COc1ccc(OC)c(Nc2sc(C(=O)c3ccccc3)c(N)c2S(=O)(=O)c2ccccc2)c1 -20.3%, O=c1oc2ccccc2c(N2CCN(c3ccc(F)cc3)CC2)c1CN1CCCC1 -9.98%, Cc1cccc(N2CCN(S(=O)(=O)c3cc(C(=O)Nc4ccc(Oc5ccccc5)cc4)ccc3F)CC2)c1C -30.3%, O=C(Cn1ncc2c([nH]c3ccccc32)c1=O)NCCCN1CCN(c2ccccc2)CC1 -18.1%, Cc1ccccc1NC(=O)Cn1c(=O)n(CCc2ccccc2)c(=O)c2ccccc21 -18.5%, CCc1nn2c(=O)cc(COC(=O)c3ccccc3NC(=O)COc3ccc(C)c(C)c3)nc2s1 4.5%, COc1ccc(CNC(=O)C(C)n2nc(C)c3c(C)n(-c4ccccc4)nc3c2=O)c(OC)c1 (stereo not given) 0%, Cc1oc(-c2ccccc2F)nc1CN1CCC(C(=O)NCCc2ccccc2)CC1 -19.2%, CC(C(=O)Nc1ccc(OC(F)(F)F)cc1)N1Cc2ccccc2C1=O (stereo not given) -14.3%, CCCCn1cc(S(=O)(=O)c2cc(C)ccc2C)c(=O)c2cc(F)c(F)cc21 -1.69%, Cc1c(Cl)cccc1-n1ncc(C(=O)NC2CCCCC2)c1C1CCN(C(=O)OC(C)(C)C)CC1 -2.64%, CCOC(=O)c1cccc(NC(=O)c2oc3c(c2C)-c2nn(CC)cc2CC3)c1 5.8%, CCOc1ccc(CCNC(=O)CSc2nnnn2-c2ccccc2)cc1OCC -18.7%
